# This is one part of the list.
# B1: rMpL (Macrolepiota procera) (protein)
# chain: MSTQVSSGRTYKITNVIAGTVIDLSGEDNKSIIGYPYHSGKNQQWTFNWTGKAWTLRSASSGSYLGIEGTPAGGTRLVAVNDPFEWHIWRDEANENAFRIFVPFTNYNLDLSGYGDTTPGTPVQLWWTWEGLHQTWTIDRP
# How the values were obtained:
# Test in all cases: glycan array binding signal (z-score within array); higher = stronger binding
# Conditions in all cases: glycan notation: IUPAC condensed, linker removed
# [1] = target: Gal(b1-4)GlcNAc(b1-3)Gal(b1-4)GlcNAc(b1-3)Gal(b1-4)GlcNAc(b1-3)Gal(b1-4)GlcNAc(b1-3)Gal(b1-4)GlcNAc(b1-2)Man(a1-3)[Gal(b1-4)GlcNAc(b1-3)Gal(b1-4)GlcNAc(b1-3)Gal(b1-4)GlcNAc(b1-3)Gal(b1-4)GlcNAc(b1-3)Gal(b1-4)GlcNAc(b1-2)Man(a1-6)]Man(b1-4)GlcNAc(b1-4)[Fuc(a1-6)]GlcNAc
# In short: (§1)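 Columns mapping to the same glycan were averaged after glycan names were converted to IUPAC-condensed notation. The data come from 3228 arrays in the Consortium for Functional Glycomics database, limited to those with an available protein sequence. Binding is reported as a within-array Z-score averaged across arrays of one protein sequence and across linkers.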
# [2] = target: Gal(b1-4)GlcNAc(b1-3)Gal(b1-4)GlcNAc(b1-3)Gal(b1-4)GlcNAc(b1-3)Gal(b1-4)GlcNAc(b1-3)Gal(b1-4)GlcNAc(b1-2)[Gal(b1-4)GlcNAc(b1-3)Gal(b1-4)GlcNAc(b1-3)Gal(b1-4)GlcNAc(b1-3)Gal(b1-4)GlcNAc(b1-3)Gal(b1-4)GlcNAc(b1-6)]Man(a1-6)[Gal(b1-4)GlcNAc(b1-3)Gal(b1-4)GlcNAc(b1-3)Gal(b1-4)GlcNAc(b1-3)Gal(b1-4)GlcNAc(b1-3)Gal(b1-4)GlcNAc(b1-2)Man(a1-3)]Man(b1-4)GlcNAc(b1-4)[Fuc(a1-6)]GlcNAc
# In short: as §1
# [3] = target: Gal(b1-4)GlcNAc(b1-3)Gal(b1-4)GlcNAc(b1-3)Gal(b1-4)GlcNAc(b1-3)Gal(b1-4)GlcNAc(b1-3)Gal(b1-4)GlcNAc(b1-3)Gal(b1-4)GlcNAc(b1-2)Man(a1-3)[Gal(b1-4)GlcNAc(b1-3)Gal(b1-4)GlcNAc(b1-3)Gal(b1-4)GlcNAc(b1-3)Gal(b1-4)GlcNAc(b1-3)Gal(b1-4)GlcNAc(b1-3)Gal(b1-4)GlcNAc(b1-2)Man(a1-6)]Man(b1-4)GlcNAc(b1-4)GlcNAc
# In short: as §1
# [4] = target: Gal(b1-4)GlcNAc(b1-3)Gal(b1-4)GlcNAc(b1-3)GalNAc
# In short: as §1
# [5] = target: Gal(b1-4)GlcNAc(b1-3)Gal(b1-4)GlcNAc(b1-3)[Gal(b1-4)GlcNAc(b1-3)Gal(b1-4)GlcNAc(b1-6)]GalNAc
# In short: as §1
# [6] = target: Gal(b1-4)GlcNAc(b1-3)Gal(b1-4)GlcNAc(b1-6)[Gal(b1-3)]GalNAc
# In short: as §1
# [7] = target: Gal(b1-4)GlcNAc(b1-3)Gal(b1-4)[Fuc(a1-3)]GlcNAc(b1-3)Gal(b1-4)[Fuc(a1-3)]GlcNAc
# In short: as §1
# [8] = target: Gal(b1-4)GlcNAc(b1-3)GalNAc
# In short: as §1
# [9] = target: Gal(b1-4)GlcNAc(b1-3)[Fuc(a1-3)GlcNAc(b1-6)]Gal(b1-4)Glc
# In short: as §1
# [10] = target: Gal(b1-4)GlcNAc(b1-3)[Gal(b1-4)GlcNAc(b1-6)]Gal(b1-4)GlcNAc
# In short: as §1
# [11] = target: Gal(b1-4)GlcNAc(b1-3)[GlcNAc(b1-6)]Gal(b1-4)GlcNAc
# In short: as §1
# [12] = target: Gal(b1-4)GlcNAc(b1-6)Gal(b1-4)GlcNAc
# In short: as §1
# [13] = target: Gal(b1-4)GlcNAc(b1-6)GalNAc
# In short: as §1
# [14] = target: Gal(b1-4)GlcNAc(b1-6)[Gal(b1-3)]GalNAc
# In short: as §1
# [15] = target: Gal(b1-4)GlcNAc(b1-6)[Gal(b1-4)GlcNAc(b1-3)]GalNAc
# In short: as §1
# Gal(b1-4)GlcNAc6P = target: Gal(b1-4)GlcNAc6P
# In short: as §1
# Gal(b1-6)Gal = target: Gal(b1-6)Gal
# In short: as §1
# Gal3S(b1-3)GalNAc = target: Gal3S(b1-3)GalNAc
# In short: as §1
# Gal3S(b1-3)GlcNAc = target: Gal3S(b1-3)GlcNAc
# In short: as §1
# [16] = target: Gal3S(b1-3)[Fuc(a1-4)]GlcNAc
# In short: as §1
# Gal3S(b1-4)Glc = target: Gal3S(b1-4)Glc
# In short: as §1
# Gal3S(b1-4)Glc6S = target: Gal3S(b1-4)Glc6S
# In short: as §1
# Gal3S(b1-4)GlcNAc = target: Gal3S(b1-4)GlcNAc
# In short: as §1
# [17] = target: Gal3S(b1-4)[Fuc(a1-3)]Glc6S
# In short: as §1
# [18] = target: Gal3S(b1-4)[Fuc(a1-3)]GlcNAc
# In short: as §1
# [19] = target: Gal3S(b1-4)[Fuc(a1-3)]GlcNAc6S
# In short: as §1
# Gal3S4S(b1-4)GlcNAc = target: Gal3S4S(b1-4)GlcNAc
# In short: as §1
# Gal3S6S(b1-4)GlcNAc = target: Gal3S6S(b1-4)GlcNAc
# In short: as §1
# Gal3S6S(b1-4)GlcNAc6S = target: Gal3S6S(b1-4)GlcNAc6S
# In short: as §1
# Gal4S(b1-4)GlcNAc = target: Gal4S(b1-4)GlcNAc
# In short: as §1
# Gal4S6S(b1-4)GlcNAc = target: Gal4S6S(b1-4)GlcNAc
# In short: as §1
# Gal6P(b1-4)GlcNAc = target: Gal6P(b1-4)GlcNAc
# In short: as §1
# Gal6S(b1-3)GlcNAc = target: Gal6S(b1-3)GlcNAc
# In short: as §1
# Gal6S(b1-3)GlcNAc6S = target: Gal6S(b1-3)GlcNAc6S
# In short: as §1
# Gal6S(b1-4)Glc = target: Gal6S(b1-4)Glc
# In short: as §1
# Gal6S(b1-4)Glc6S = target: Gal6S(b1-4)Glc6S
# In short: as §1
# Gal6S(b1-4)GlcNAc = target: Gal6S(b1-4)GlcNAc
# In short: as §1
# Gal6S(b1-4)GlcNAc6S = target: Gal6S(b1-4)GlcNAc6S
# In short: as §1
# GalNAc(a1-3)Gal = target: GalNAc(a1-3)Gal
# In short: as §1
# GalNAc(a1-3)GalNAc = target: GalNAc(a1-3)GalNAc
# In short: as §1
# [20] = target: GalNAc(a1-3)GalNAc(a1-3)Gal(a1-4)Gal(b1-4)GlcNAc
# In short: as §1
# [21] = target: GalNAc(a1-3)GalNAc(b1-3)Gal(a1-4)Gal(b1-4)Glc
# In short: as §1
# [22] = target: GalNAc(a1-3)GalNAc(b1-3)Gal(a1-4)Gal(b1-4)GlcNAc
# In short: as §1
# GalNAc(b1-3)Gal = target: GalNAc(b1-3)Gal
# In short: as §1
# [23] = target: GalNAc(b1-3)Gal(a1-4)Gal(b1-4)GlcNAc
# In short: as §1
binder,measurement,setting,value
B1,glycan array binding signal (z-score),[1],2.86
same,glycan array binding signal (z-score),[2],4.6
same,glycan array binding signal (z-score),[3],2.75
same,glycan array binding signal (z-score),[4],0.323
same,glycan array binding signal (z-score),[5],0.593
same,glycan array binding signal (z-score),[6],0.444
same,glycan array binding signal (z-score),[7],0.378
same,glycan array binding signal (z-score),[8],0.241
same,glycan array binding signal (z-score),[9],0.388
same,glycan array binding signal (z-score),[10],1.62
same,glycan array binding signal (z-score),[11],0.663
same,glycan array binding signal (z-score),[12],0.564
same,glycan array binding signal (z-score),[13],0.107
same,glycan array binding signal (z-score),[14],0.103
same,glycan array binding signal (z-score),[15],1.32
same,glycan array binding signal (z-score),Gal(b1-4)GlcNAc6P,-0.602
same,glycan array binding signal (z-score),Gal(b1-6)Gal,-0.301
same,glycan array binding signal (z-score),Gal3S(b1-3)GalNAc,-0.327
same,glycan array binding signal (z-score),Gal3S(b1-3)GlcNAc,-0.375
same,glycan array binding signal (z-score),[16],-0.271
same,glycan array binding signal (z-score),Gal3S(b1-4)Glc,-0.325
same,glycan array binding signal (z-score),Gal3S(b1-4)Glc6S,-0.352
same,glycan array binding signal (z-score),Gal3S(b1-4)GlcNAc,-0.326
same,glycan array binding signal (z-score),[17],-0.194
same,glycan array binding signal (z-score),[18],-0.312
same,glycan array binding signal (z-score),[19],-0.333
same,glycan array binding signal (z-score),Gal3S4S(b1-4)GlcNAc,-0.373
same,glycan array binding signal (z-score),Gal3S6S(b1-4)GlcNAc,-0.312
same,glycan array binding signal (z-score),Gal3S6S(b1-4)GlcNAc6S,-0.288
same,glycan array binding signal (z-score),Gal4S(b1-4)GlcNAc,-0.407
same,glycan array binding signal (z-score),Gal4S6S(b1-4)GlcNAc,-0.434
same,glycan array binding signal (z-score),Gal6P(b1-4)GlcNAc,-0.34
same,glycan array binding signal (z-score),Gal6S(b1-3)GlcNAc,-0.201
same,glycan array binding signal (z-score),Gal6S(b1-3)GlcNAc6S,-0.439
same,glycan array binding signal (z-score),Gal6S(b1-4)Glc,-0.233
same,glycan array binding signal (z-score),Gal6S(b1-4)Glc6S,-0.362
same,glycan array binding signal (z-score),Gal6S(b1-4)GlcNAc,-0.209
same,glycan array binding signal (z-score),Gal6S(b1-4)GlcNAc6S,-0.32
same,glycan array binding signal (z-score),GalNAc(a1-3)Gal,-0.326
same,glycan array binding signal (z-score),GalNAc(a1-3)GalNAc,-0.265
same,glycan array binding signal (z-score),[20],-0.392
same,glycan array binding signal (z-score),[21],-0.304
same,glycan array binding signal (z-score),[22],-0.288
same,glycan array binding signal (z-score),GalNAc(b1-3)Gal,-0.189
same,glycan array binding signal (z-score),[23],-0.097

# — the supplement of paper PMC8728848
